Measured values from PubChem BioAssay AID540317 (National Center for Advancing Translational Sciences (NCATS), 2011).
Out of some 390,000 compounds screened, about 2,200 (0.56%) were called active. The shares of active, inactive and inconclusive entries below differ from those in the screen. Calls follow the shape of the dose curve; as a rule, active = well fitted inhibition curve with a large enough effect; inconclusive = small, poorly fitted or top-dose-only effect; inactive = no such curve, though single readings can be large or run the other way. Potencies beside an inconclusive call are fits to weak or partial responses and may not hold up.

The compounds below were run against Chromobox protein homolog 1 (Homo sapiens) (UniProt P83916) (assay: HTS for Inhibitors of HP1-beta Chromodomain Interactions with Methylated Histone Tails). Conditions: AlphaScreen HP1-beta / biotin-H3K9me3 peptide binding; series mostly up to 114 µM.
Chain of UniProt P83916 (P83916 whole entry, looked up): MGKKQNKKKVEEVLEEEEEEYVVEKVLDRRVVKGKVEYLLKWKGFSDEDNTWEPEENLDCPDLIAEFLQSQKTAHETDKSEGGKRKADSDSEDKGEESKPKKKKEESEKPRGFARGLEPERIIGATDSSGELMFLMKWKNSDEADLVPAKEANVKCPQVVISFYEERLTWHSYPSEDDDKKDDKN
Procedure, shortened: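 Compound inhibition of the preformed complex between 50 nM HP1-beta and 50 nM biotinylated H3K9me3 peptide was read by AlphaScreen. Buffer was PBS pH 7.4 with 0.01% Tween-20. Incubations ran 30 min at room temperature, with 10 ug/mL donor/acceptor beads.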
Also: nearly all actives have a fitted effect of over 70% in size.
Potency is read from the fitted curve at half-maximal effect; tags tell the direction and shape of the fitted curve.

SMILES	Potency
Cc1cc(/C=C2\SC(=S)NC2=O)c(C)n1C	inactive
O=C(CN(C(=O)C1CSC(=O)C1)c1ccc(F)cc1)NCc1ccc2c(c1)OCO2 (centres undefined)	inactive
COc1ccc(-c2[nH]c(-c3cccc(OC)c3)nc2SCC(=O)Nc2ccc3c(c2)OCO3)cc1	inconclusive: 17.8 µM [inhibitor, partial curve, poor fit]
COc1ccc(C(=O)NC(=S)NNC(=O)COc2ccccc2)cc1	inconclusive: 22.4 µM [inhibitor, partial curve, poor fit]
COc1cc(NS(=O)(=O)c2ccc(NC(=S)NC(=O)/C=C/c3ccco3)cc2)ncn1	inconclusive: 50.1 µM [inhibitor, partial curve, poor fit]
Nc1ccccc1SSc1ccccc1N	inconclusive: 15.8 µM [inhibitor, full curve]
O=[N+]([O-])c1ccc(/C=N/N2CCCCC2)cc1	inconclusive: 25.1 µM [inhibitor, full curve]
S=c1[nH]nc(C2CCCCC2)n1/N=C/c1ccccc1Cl	inconclusive: 44.7 µM [inhibitor, partial curve]
Cc1nn(-c2ccccc2)c(C)c1/C=N\N1CCN(c2ccc(Cl)cc2)CC1	inconclusive: 25.1 µM [inhibitor, single point]
COc1ccccc1C/C(N)=N/OC(=O)c1cccc([N+](=O)[O-])c1	inconclusive: 79.4 µM [inhibitor, single point]
CCN(CC)CC#CCOC(=O)C(O)(c1ccccc1)C1CCCCC1 (centres undefined)	inactive
CCN(CC)c1ccc(/C=N/N2CCOCC2)cc1	inconclusive: 50.1 µM [inhibitor, partial curve, poor fit]
CN(C(=O)c1ccno1)c1nnc(-c2ccccn2)s1	inactive
CN(C)CCOc1ccccc1-c1ccccc1	inconclusive: 25.1 µM [inhibitor, full curve, poor fit]
N#Cc1nc(-c2cccs2)oc1NCCc1ccccc1	inconclusive: 17.8 µM [inhibitor, full curve, poor fit]
O=C1NC(=S)SC1=Cc1cccs1	inconclusive: 28.2 µM [inhibitor, partial curve, poor fit]
c1ccc(CCNc2nc(-c3cccnc3)cs2)cc1	inconclusive: 39.8 µM [inhibitor, partial curve]
Cc1cc2ncc(C(=O)Nc3ccsc3C(=O)O)c(C)n2n1	inactive
Cc1cc(N=Cc2c(O)ccc3cc(Br)ccc23)no1	inconclusive: 79.4 µM [inhibitor, single point]
O=C(CNC1CCCC1)Nc1cc(Cl)ccc1[N+](=O)[O-]	active: 39.8 µM
O=C(Cn1nc(C(=O)O)c2ccccc2c1=O)Nc1ccc(F)cc1F	inactive
COc1ccc(Cc2n[nH]c(=S)n2N)cc1OC	inconclusive: 25.1 µM [inhibitor, partial curve]
CCOC(=S)N/C(=N\S(=O)(=O)c1ccccc1)c1ccccc1	inconclusive: 17.8 µM [inhibitor, partial curve, poor fit]

SMILES	Potency
COc1ccc(C2CC3(CC(C)(C)NC(=S)N3)Oc3cc(O)cc(C)c32)cc1OC (centres undefined)	inactive
CCOC(=O)C1CCN(Cc2ccc(O)c(OC)c2)CC1	inconclusive: 50.1 µM [inhibitor, partial curve, poor fit]
Cc1cccc(NC(=O)C2C3CCC4C(CCC32)C4(Cl)Cl)c1 (centres undefined)	inactive
S=C(Nc1cccc2ccccc12)NC1CCCCC1	inconclusive: 50.1 µM [inhibitor, partial curve, poor fit]
Cc1cccc(-n2c(=S)[nH]c3sc4c(c3c2=O)CCc2ccccc2-4)c1	active: 7.08 µM
CC(C)c1ccc(CN2CCSCC2)cc1	inconclusive: 70.8 µM [inhibitor, single point]
O=c1c2ccc(Cl)cc2nc(-c2ccc([N+](=O)[O-])cc2)n1O	inactive
O=C(O)c1[nH]c2ccccc2c1C(c1ccccc1)c1c(C(=O)O)[nH]c2ccccc12	inactive
COc1cc(CN(C)CCc2ccccn2)cc(OC)c1OC	inconclusive: 15.8 µM [inhibitor, partial curve, poor fit]
COc1cc(OC)c(OC)cc1/C=C/c1nc2cc3ccccc3cc2c(=O)n1-c1ccc(F)cc1F	inconclusive: 39.8 µM [inhibitor, partial curve, poor fit]
COc1cccc(CNCC(O)COc2ccc(C(=O)c3ccccc3)cc2)c1 (centres undefined)	inconclusive: 50.1 µM [inhibitor, partial curve, poor fit]
Cc1ccc(/C=N/c2sc3c(c2C#N)CCCCC3)o1	inconclusive: 35.5 µM [inhibitor, partial curve]
CC1(OC(=O)c2ccc(Cl)nc2)C(=O)C=C2C=C3CCCN3C=C2C1=O (centres undefined)	inconclusive: 50.1 µM [inhibitor, partial curve]
CCn1c(=O)sc2cc(NS(=O)(=O)c3ccc(F)c(C)c3)ccc21	inactive
CCOC(=O)/C(C#N)=C1/C(=O)N(Cc2ccccc2)c2ccccc21	active: 14.1 µM
O=C(Nc1ccncc1)Nc1cccc(C(F)(F)F)c1	inactive
O=C1COc2cc(S(=O)(=O)NCc3ccco3)c(Cl)cc2N1	inactive
O=C(NCCCn1ccnc1)c1ccc2ccccc2c1	inactive
O=C(O)CC(NC(=S)NCc1ccccc1)C(=O)O (centres undefined)	inactive
COc1ccc(NC(=O)CSc2nnc(-c3ccccc3Cl)n2Cc2ccco2)c(OC)c1	inconclusive: 79.4 µM [inhibitor, partial curve, poor fit]
CCN(CC)S(=O)(=O)c1ccc(N2CCOCC2)c(NS(=O)(=O)c2ccc(C(C)C)cc2)c1	inconclusive: 25.1 µM [inhibitor, single point]
COc1ccc(CCC(=O)NNC(=O)Nc2ccc(C(C)C)cc2)cc1	inactive
CCOc1cc(CNc2ccc(O)cc2)ccc1OCc1ccc(Cl)cc1	inconclusive: 39.8 µM [inhibitor, partial curve]

SMILES	Potency
O=C(COc1ccc2c(c1)OCO2)Nc1ccccc1F	inactive
COc1ccc(NC(=O)CN(C)C(=O)Cc2ccc(S(=O)(=O)N3CCOCC3)s2)cc1	inconclusive: 79.4 µM [inhibitor, single point]
CCCn1nc([N+](=O)[O-])c(C(C#N)c2nc3ccccc3o2)c(Cl)c1=O (centres undefined)	inconclusive: 25.1 µM [inhibitor, full curve, poor fit]
CC(=O)Nc1cc(NC(C)=O)cc(-c2nc3ccccc3[nH]2)c1	inconclusive: 89.1 µM [inhibitor, partial curve, poor fit]
COc1ccc(C(=O)NC(=S)Nc2ccc(Cl)c(C(=O)O)c2)cc1	inconclusive: 79.4 µM [inhibitor, single point]
O=C(CN1C(=O)NC2(CCCC2)C1=O)OCc1cc(=O)n2cc(Br)ccc2n1	inconclusive: 70.8 µM [inhibitor, single point]
Cc1ccc(N2CCN(C(=O)Nc3cccc([N+](=O)[O-])c3)CC2C)cc1 (centres undefined)	inconclusive: 56.2 µM [inhibitor, partial curve, poor fit]
CCn1c(O)c(N=NC(=O)c2cccnc2)c2cc(Br)ccc21	inconclusive: 79.4 µM [inhibitor, partial curve, poor fit]
CCOC(=O)C1CCCN(CC(=O)Nc2cccc(C(C)=O)c2)C1 (centres undefined)	inconclusive: 17.8 µM [inhibitor, full curve]
COc1ccccc1/C=C(/C(=O)OCC(=O)Nc1ccc(N(C)C)cc1)c1ccccc1	inconclusive: 31.6 µM [inhibitor, single point]
Cc1cc(Cl)c(OCCn2ccnc2)c(Br)c1	inconclusive: 15.8 µM [inhibitor, full curve]
COc1ccc(-c2c3c(=O)n(C)c(=O)n(C)c3cn2-c2ccccc2O)cc1	inactive
CCCn1c(N)c(C(=O)CSc2nc3ccccc3s2)c(=O)[nH]c1=O	inconclusive: 14.1 µM [inhibitor, partial curve]
CC(=O)Nc1ccc(S(=O)(=O)Nc2ccc(Nc3ccccc3)cc2)cc1	inconclusive: 50.1 µM [inhibitor, partial curve, poor fit]
CN(CC(=O)NCCCc1ccccc1)Cc1ccc(Br)cc1	inconclusive: 39.8 µM [inhibitor, partial curve]
CCOC(=O)c1c(CN(CC)CC)n(-c2ccccc2)c2ccc(O)cc12	inconclusive: 89.1 µM [inhibitor, partial curve, poor fit]
CCCn1c(-c2ccc(S(=O)(=O)N3CCOCC3)cc2)csc1=Nc1ccc(OCC)cc1	inconclusive: 8.91 µM [inhibitor, full curve]
O=C1C2C(C(=O)N1/N=C/c1cc(Br)cc([N+](=O)[O-])c1O)C1C=CC2C12CC2 (centres undefined)	inconclusive: 50.1 µM [inhibitor, partial curve, poor fit]
CCOC(=O)C[C@H]1c2cc(F)ccc2S(=O)(=O)N1c1cccc(OC)c1	inactive
COc1ccc(-n2nnnc2SCC(=O)c2ccc(O)c(O)c2)cc1	inconclusive: 8.91 µM [inhibitor, full curve, poor fit]
O=C(CSc1ccccc1)Nc1nnc(COc2ccc(Cl)cc2)s1	inconclusive: 12.6 µM [inhibitor, partial curve, poor fit]
N#Cc1ccccc1NC(=O)Cn1cnc2onc(-c3cccc(F)c3)c2c1=O	inactive
CCOc1c(Cl)cc(/C=C/C(=O)N(CC)CC(=O)NCc2cccs2)cc1OC	inactive
